From the supplement of paper PMC5998384

Tests used:
HeLa Kyoto [1] = experiment: solubility in G1/S (NP-40 vs SDS abundance) (log2 ratio); higher = more soluble; conditions: cell cycle stage: G1/S
HeLa Kyoto [2] = experiment: solubility change mitosis vs G1/S (difference of NP-40 vs SDS log2 ratios) (log2 ratio difference); higher = more soluble in mitosis
HeLa Kyoto [3] = experiment: melting temperature (median over replicates), in situ; higher = more thermally stable
HeLa Kyoto [4] = experiment: thermal stability score vs G1/S (z-score of summed log2 fold changes over temperatures); higher = more thermally stable than in G1/S
[5] = cell cycle stage: early G1 (4.5 h after nocodazole release)
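For melting temperature (median over replicates), in situ in this document: HeLa Kyoto cells synchronized by double thymidine or nocodazole block, proteins quantified by TMT10plex mass spectrometry, three independent biological replicates.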
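For solubility change mitosis vs G1/S (difference of NP-40 vs SDS log2 ratios) in this document: synchronized HeLa Kyoto cells (double thymidine block for G1/S, nocodazole release for mitosis), protein amounts in NP-40 versus SDS lysates quantified by mass spectrometry, three biological replicates.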
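For solubility in G1/S (NP-40 vs SDS abundance) in this document: HeLa Kyoto cells arrested at G1/S by double thymidine block, proteins quantified by TMT10plex mass spectrometry in mild NP-40 versus SDS extracts, three biological replicates.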
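For thermal stability score vs G1/S (z-score of summed log2 fold changes over temperatures) in this document: synchronized HeLa Kyoto cells, proteins quantified by TMT10plex mass spectrometry, three biological replicates, mitosis taken 0.5 h after nocodazole release, G1/S directly after double thymidine block.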

| Substance | solubility in G1/S (log2) (HeLa Kyoto [1]) | solubility change mitosis (log2) (HeLa Kyoto [2]) | melting temperature (HeLa Kyoto [3]; cell cycle stage: G1/S) [°C] | melting temperature (HeLa Kyoto [3]; cell cycle stage: mitosis) [°C] | thermal stability score (HeLa Kyoto [4]; [5]) | thermal stability score (HeLa Kyoto [4]; cell cycle stage: mitosis) |
| --- | --- | --- | --- | --- | --- | --- |
| PLD2 (sequence left out) | -0.332 | 0.022 | – | – | – | – |
| EXOC5 (sequence left out) | 0.0694 | -0.111 | 49.7 | 48.4 | 0.476 | 0.71 |
| NCOR2 | 0.0268 | -0.0056 | 48.7 | 51.4 | -0.00372 | 6.48 |
| APC | -0.0417 | -0.0555 | 51.5 | 52.7 | -0.0369 | 0.455 |
| UBA5 (sequence left out) | 0.0904 | -0.158 | 53.8 | 53.9 | 1.63 | -0.14 |
| NDUFS6 (sequence left out) | 0.246 | 0.126 | 56.2 | 52.4 | -2.28 | -2.51 |
| EIF2AK1 (sequence left out) | -0.289 | 0.028 | – | – | -0.109 | -0.576 |
| SH3KBP1 (sequence left out) | 0.347 | -0.0457 | 52.5 | 52.4 | 0.232 | 0.718 |
| [skipping about 500 residues]DNAFHLGPLRVTTTNTVASTPPTPTCEDAASRQQRLSALRRYQDKRLLALSNESDSEENVCEVELDTDLFPRPRSPSPEDESSSSSSSSSSEDEEELNERRASTWQRNAMRRRQKTTREDKPSAPIKPTNTYIGEDNYDYPQIKVDDLSSSPTSSPERSTSTLEIQPSRASPTSDIESVERKIYKAYKWLRYSYISYSNNKDGETSLVTGEADEGRAGTSHKDNPAPSSSKEACLNIAMAQRNQDLPPEGCSKDTFKEETPRTPSNGPGHEHSSHAWAEVPEGTSQDTGNSGSVEHPFETKKLNGKALSSRAEEPPSPPVPKASGSTLNSGSGNCPRTQSDDSEERSLETICANHNNGRLHPRPPHPHNNGQNLGELEVVAYSSPGHSDTDRDNSSLTGTLLHKDCCGSEMACETPNAGTREDPTDTPATDSSRAVHGHSGLKRQRIELEDTDSENSSSEKKLKT [DCAF5] | 0.0872 | -0.193 | – | – | – | – |
| NDUFS2 (sequence left out) | -0.138 | -0.143 | 52.3 | 52.3 | 0.0241 | -0.281 |
| MDKFWWHAAWGLCLVPLSLA[skipping about 200 residues]ATTLMSTSATATETATKRQETWDWFSWLFLPSESKNHLHTTTQMAGTSSNTISAGWEPNEENEDERDRHLSFSGSGIDDDEDFISSTISTTPRAFDHTKQNQDWTQWNPSHSNPEVLLQTTTRMTDVDRNGTTAYEGNWNPEAHPPLIHHEHHEEEETPHSTSTIQATPSSTTEETATQKEQWFGNRWHEGYRQTPKEDSHSTTGTAAASAHTSHPMQGRTTPSPEDSSWTDFFNPISHPMGRGHQAGRRMDMDSSHSITLQPTANPNTGLVEDLDRTGPLSMTTQQSNSQSFSTSHEGLEEDKDHPTTSTLTSSNRNDVTGGRRDPNHSEGSTTLLEGYTSHYPHTKESRTFIPVTSAKTGSFGVTAVTVGDSNSNVNRSLSGDQDTFHPSGGSHTTHGSESDGHSHGSQEGGANTTSGPIRTPQIPEWLIILASLLALALILAVCIAVNSRRRCGQKKKLVINSGNGAVEDRKPSGLNGEASKSQEMVHLVNKESSETPDQFMTADETRNLQNVDMKIGV [CD44] | -0.117 | 0.0127 | 61.8 | 66.3 | -2.25 | -2.31 |
| MSLN (sequence left out) | 0.271 | 0.12 | 54.2 | 53.7 | -0.135 | -0.382 |
| INO80 (sequence left out) | -0.336 | -0.00769 | – | – | – | – |
| [skipping about 250 residues]ETPLLGSSLVQNSILVDSVTGVPTNPSFQKPSTSAFPAPVPLNSGNISVQDSHTSDNLSMLATGMPSTSYGLSSHQEWPQHQDSARTEQLYSQKQETSLSGSQYNINFQQGPSISLHSGLHHRPDKISDHSSVKQEYTHKAGSSKHHGPISTTPGIIPQKMSLDKYREKRKLETLDLDVRDHYIAAQVEQQHKQGQSQAASSSSVTSPIKMKIPIANTEKYMADKKEKSGSLKLRIPIPPTDKSASKEELKMKIKVSSSERHSSSDEGSGKSKHSSPHISRDHKEKHKEHPSSRHHTSSHKHSHSHSGSSSGGSKHSADGIPPTVLRSPVGLSSDGISSSSSSSRKRLHVNDASHNHHSKMSKSSKSSGSSSSSSSSVKQYISSHNSVFNHPLPPPPPVTYQVGYGHLSTLVKLDKKPVETNGPDANHEYSTSSQHMDYKDTFDMLDSLLSAQGMNM [CCNT2] | -0.34 | 0.238 | – | – | – | – |
| UBE2L3 (sequence left out) | 0.828 | 0.438 | 54.8 | 53.4 | -2.33 | -4.07 |
| MAX (sequence left out) | 0.0325 | 0.0834 | 53.4 | 52 | – | – |
| EZR (sequence left out) | 0.0636 | -0.00638 | 52.8 | 52.2 | -0.195 | -0.244 |
| NCAPD2 (sequence left out) | -0.161 | -0.0444 | 49.2 | 48.9 | 0.0891 | 2.02 |
| TGFB1 (sequence left out) | 0.341 | -0.273 | – | – | – | – |
